Measured values: PubChem BioAssay AID889 (National Center for Advancing Translational Sciences (NCATS), 2007)
The whole screen tested about 75,000 compounds, of which about 15 (0.02%) were called active. Inconclusive results, whose numbers are uncertain, are shown with a selection of clear calls. The call rests on the fitted dose curve; in most records, active means well fitted inhibition curve with a large enough effect in the main read-out, with a control signal flat (not every such curve was filed as active); inconclusive means small, poorly fitted or top-dose-only effect, or a change in a side signal; inactive means flat fitted curve, though single readings scatter. Where the call is inconclusive, the potency comes from a doubtful curve fit. A note “side channel” means that the fit belongs to a control or component signal, not to the main read-out.

What follows are compounds tested against Caspase-7 (Homo sapiens) (UniProt P55210) (assay: qHTS Assay for Allosteric/Competitive Inhibitors of Caspase-7). Settings: recombinant caspase-7, Ac-DEVD-AFC fluorescence rate; activity change, negative = inhibition: at 57.5 µM (top of the series) unless noted.
Sequence of UniProt P55210 (P55210 whole entry, looked up): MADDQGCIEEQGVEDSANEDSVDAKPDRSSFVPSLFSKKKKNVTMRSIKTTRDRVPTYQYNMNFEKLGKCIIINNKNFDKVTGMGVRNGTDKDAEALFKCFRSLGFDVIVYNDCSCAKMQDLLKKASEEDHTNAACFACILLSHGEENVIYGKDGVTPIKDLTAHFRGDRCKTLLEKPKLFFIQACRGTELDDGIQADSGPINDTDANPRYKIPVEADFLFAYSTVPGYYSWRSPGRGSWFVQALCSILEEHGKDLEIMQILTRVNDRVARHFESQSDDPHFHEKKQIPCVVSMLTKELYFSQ
Potency means the concentration at half of the fitted maximal effect; tags describe the fitted curve by direction and shape or compound fluorescence and quenching.
Wherever activity change, negative = inhibition is given: % of control where 0% means no effect.

Potency, inconclusive:
COCCn1c(=N)c(C(=O)NCCc2ccccc2)cc2c(=O)n3cccc(C)c3nc21 1.58 µM [fluorescent, side channel, full curve]
COc1ccc(-c2cc3ccc(OCc4nn[nH]n4)cc3oc2=O)cc1OC 25.1 µM [fluorescent, partial curve]
COc1ncc2nc(-c3cccs3)c(=O)n(C)c2n1 2 µM [fluorescent, side channel, full curve]
N#Cc1c(N)n(CCNC(=O)c2cccs2)c2nc3ccccc3nc12 12.6 µM [fluorescent, side channel, partial curve]
CCOc1ccc2nc(NCCNC(=O)Nc3ccccc3)c(C#N)cc2c1 3.98 µM [fluorescent, side channel, partial curve]
CCN(CC)c1ccc2c(c1)oc(=O)c1c(Cl)cc(=O)oc12 15.8 µM [fluorescent, partial curve]
CCNc1ncc2nc(-c3cc(F)cc(F)c3)c(=O)n(-c3ccc(OC)cc3)c2n1 6.31 µM [fluorescent, side channel, partial curve]
CCOC(=O)c1cc2c(=O)n3cccc(C)c3nc2n(Cc2ccco2)c1=NC(=O)c1cccnc1 3.16 µM [fluorescent, side channel, full curve]
CCC(=O)N1c2ccccc2-c2nnc(SC)nc2OC1c1ccc(OC)c(OC)c1 (configuration not stated) 31.6 µM [inhibitor, single point]
CNC(=O)c1c(NC(=O)c2nc3ccccc3s2)sc2c1CCC2 25.1 µM [fluorescent, side channel, partial curve]
N#C[C@@H]1[C@@H]2C(=O)N(c3ccc4c(c3)OCCO4)C(=O)[C@@H]2C2c3ccccc3C=CN21 (some centres not stated) 31.6 µM [inhibitor, single point]
CN(C)c1ncc2nc(-c3cc(F)cc(F)c3)c(=O)n(-c3ccccc3)c2n1 3.98 µM [fluorescent, side channel, full curve]
COc1cc2c(cc1OC)C1=C(C#N)COCN1CC2 31.6 µM [fluorescent, single point]
CCOc1cc(C2C(C(=O)OC)=CN(C3CCCC3)C=C2C(=O)OC)cc(Br)c1O 25.1 µM [fluorescent, partial curve]
COc1ccc2occ(C(=O)c3coc4ccc(O)c(CN(C)C)c34)c2c1 25.1 µM [inhibitor, single point]
CCCCn1c(CCC(=O)O)ccc1-c1cccs1 15.8 µM [inhibitor, partial curve]
COc1cc(/C=C/C(=O)CC(=O)/C=C/c2ccc(O)c(OC)c2)ccc1O 12.6 µM [inhibitor, partial curve]
CCOc1ccc2nc(NCCNC(=O)Nc3cccc(C)c3)c(C#N)cc2c1 12.6 µM [fluorescent, side channel, partial curve]
CC(C)=CCOc1cc2oc(=O)ccc2cc1O 25.1 µM [fluorescent, partial curve]
COc1ccc(Oc2ncc3nc(-c4ccc(F)cc4)c(=O)n(Cc4cccs4)c3n2)cc1 25.1 µM [inhibitor, single point]
CCCn1nc(NC(=O)CC(C)C)c2cc3ccccc3nc21 25.1 µM [fluorescent, partial curve]
Cn1c(=O)c(-c2ccccc2)nc2cnc(Nc3ccccc3)nc21 3.16 µM [fluorescent, single point]
COCCn1c(=O)c(CCc2ccccc2)nc2cnc(N3CCN(C)CC3)nc21 20 µM [inhibitor, single point]
CCN(CC)c1ccc2cc(NC(=O)CCC(=O)O)c(=O)oc2c1 2 µM [fluorescent, side channel, partial curve]
Cn1cc(-c2nc3cncnc3n(Cc3ccc(F)cc3)c2=O)c2ccccc21 2.51 µM [inhibitor, partial curve]
COc1cccc(Nc2ncc3nc(-c4ccc(Cl)cc4)c(=O)n(CCC#N)c3n2)c1 3.16 µM [fluorescent, full curve]
COc1cccc(Cn2c(=O)cnc3cnc(N(C)C)nc32)c1 15.8 µM [fluorescent, side channel, partial curve]
N.N.O=C(O)C1(C(=O)O)CCC1.[Pt] 15.8 µM [fluorescent, partial curve]
Cc1ccc2cc(C#N)c(N3CCCN(S(=O)(=O)c4ccccc4)CC3)nc2c1 31.6 µM [inhibitor, single point]

Activity change, negative = inhibition, inactive:
COc1cc2ccccc2cc1C(=O)Nc1ccc(N2CCN(C)CC2)cc1 -1.2%
Cc1ccc(-c2cc(-c3nnc(SCC(=O)N(C)CCC#N)n3N)c3ccccc3n2)cc1 -0.61%
O=S(=O)(c1ccccc1)N1CCC2(CCN(c3ccc(-c4ccccc4)cc3)CC2)CC1 -0.88%
O=C(c1cnccn1)N1CCC2(CC1)CN(Cc1nccs1)C2 -1.34%
O=C(CSc1nnc(-c2ccc(Br)o2)n1Cc1ccccc1)c1ccccc1F -7.78%
CC(=O)OC1CC(OC(C)=O)[C@]2(C)C(CC(OC(C)=O)[C@@]3(C)C4=CC(=O)OC(c5ccoc5)[C@]4(C)CCC32)C1(C)C (some centres not stated) -1.04%
COc1ccc(OC)c(NC(=O)c2ccc(NS(=O)(=O)c3c(C)noc3C)cc2)c1 2.11%
CCC(=O)Nc1ccc(NC(=O)c2cc3ccccc3o2)cc1 -2.18%
CCN1CCN(c2nc3ccccc3nc2C(C#N)C(=O)OC2CCCCC2)CC1 (configuration not stated) -6.54%
Cc1cc(NC(=O)c2ccc(Cl)cc2)no1 -0.491%
O=C(O)c1ccc(CO)o1 -1.3%
CCC(=O)Nc1ccc(NC(=O)c2cccc(OC)c2)nc1 -0.611%
COc1ccccc1-c1cc(C(=O)N2CCN(c3ccccc3OC)CC2)no1 -4.18%
